Experimental data from article PMC6212790.
The other results are listed elsewhere or left out. At the low end of the ranking, values are background and their order means little.

biological target: T1, GST-Rok-C97-191 (UniProt O34857); assay: protein binding microarray; settings: Rok is a gene silencer of Bacillus subtilis; high values mean tight binding; most listed sequences are background and not binding sites; double strand, one strand shown;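 also: rank score from −0.5 (least bound) to 0.5 (best bound)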
T1 sequence: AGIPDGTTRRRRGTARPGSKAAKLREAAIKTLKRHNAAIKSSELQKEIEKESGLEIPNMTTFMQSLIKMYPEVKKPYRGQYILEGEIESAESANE

| Sequence | binding signal |
| --- | --- |
| AAGCATGT | -0.048 E-score |
| AGGGAGCC | -0.364 E-score |
| AGAATCAC | 0.101 E-score |
| CAACGCGA | 0.0243 E-score |
| TAGGCTCA | -0.303 E-score |
| CTATTACA | 0.35 E-score |
| ACTGAGTA | 0.0348 E-score |
| CTTGTGAC | 0.0172 E-score |
| AACTAACC | 0.141 E-score |
| ACAGCCAA | -0.0329 E-score |
| GGCTTAAC | -0.175 E-score |
| CACATAAG | 0.133 E-score |
| GTCGGACA | -0.0765 E-score |
| AAAACTCA | 0.0997 E-score |
| AAAAGGCG | -0.0834 E-score |
| AGGTCACA | -0.186 E-score |
| CCTCTGAG | -0.125 E-score |
| AGGAGGAC | -0.214 E-score |
| AGAAGGCA | -0.0906 E-score |
| GTCAAATA | 0.103 E-score |
| CTCGACAA | -0.0854 E-score |
| CACCAGGC | -0.168 E-score |
| CTTGGGAA | -0.111 E-score |
| TAAACCGA | 0.0158 E-score |
| CACCCGTA | -0.165 E-score |

| Sequence | binding signal |
| --- | --- |
| GCGGATCC | -0.187 E-score |
| CCCTCTAG | -0.126 E-score |
| AGTTCAGC | 0.16 E-score |
| AGATAGGG | -0.0405 E-score |
| CGTGACGA | -0.268 E-score |
| CTCGCCAC | -0.0578 E-score |
| ACCAGAAA | -0.0309 E-score |
| ATGAGGCG | -0.173 E-score |
| ATTAAGAA | 0.171 E-score |
| AGGTTCTG | -0.0639 E-score |
| CGATTCTA | 0.285 E-score |
| AGTCTCGA | -0.0388 E-score |
| GATTGGCA | -0.0135 E-score |
| GCGATAGC | -0.158 E-score |
| GAAATGGC | -0.16 E-score |
| CCCAATAC | -0.0777 E-score |
| CCATTCGG | -0.12 E-score |
| AAAGGCTG | -0.113 E-score |
| CATGAACC | -0.273 E-score |
| CCAAACAG | -0.128 E-score |
| AGAGCTAG | 0.0403 E-score |
| GACGACGA | -0.104 E-score |
| ACCTACTA | 0.343 E-score |
| AGCACGCG | 0.00152 E-score |
| ACTACCAG | 0.213 E-score |

| Sequence | binding signal |
| --- | --- |
| CATCGAAA | 0.033 E-score |
| CAGACCAC | -0.188 E-score |
| ATCATTAG | 0.103 E-score |
| CCCGCCTC | -0.335 E-score |
| CAGCTTTC | 0.0558 E-score |
| CCATTTTC | -0.132 E-score |
| CCCAAAAA | 0.161 E-score |
| AAGTGTGG | -0.0423 E-score |
| CCGGCGCA | -0.273 E-score |
| ATAGCCAA | 0.0621 E-score |
| AAAGGGCA | 0.0346 E-score |
| AGTGCTCC | -0.221 E-score |
| CCTCCGTC | -0.355 E-score |
| GCTGTTCC | -0.12 E-score |
| AACTCACA | 0.0954 E-score |
| CAAAGTTA | 0.0336 E-score |
| CTCCGTAA | -0.153 E-score |
| CCCCGCTA | -0.195 E-score |
| CTACGAAC | 0.149 E-score |
| CTTCATTA | 0.0438 E-score |
| CACCTCAA | 0.0883 E-score |
| CGACTTCA | -0.109 E-score |
| GCACAAGC | -0.233 E-score |
| GGACACAC | -0.142 E-score |
| GCCTCATA | -0.156 E-score |

| Sequence | binding signal |
| --- | --- |
| ATCATTTG | 0.138 E-score |
| TAATTGAA | 0.0505 E-score |
| AATGTAAC | 0.166 E-score |
| GTAGAGAA | 0.135 E-score |
| TATATCGA | 0.314 E-score |
| ACACTCAT | -0.168 E-score |
| GAATTACC | 0.18 E-score |
| GAAAGATA | 0.329 E-score |
| AGATTTAC | 0.205 E-score |
| CGGCGCGC | -0.31 E-score |
| AGATGCAA | -0.0738 E-score |
| TCCATTCA | -0.131 E-score |
| GCTTACGA | 0.0382 E-score |
| AATCAGGG | -0.138 E-score |
| GCTGGGGA | -0.22 E-score |
| AAGGCATG | 0.00172 E-score |
| TGCTGAAA | -0.0784 E-score |
| CTAGAGCC | -0.0458 E-score |
| TCACTGCA | -0.0738 E-score |
| CGGCGAGA | -0.0401 E-score |
| CGTTGATA | 0.181 E-score |
| AGTTATCC | 0.14 E-score |
| GCGTTTAA | -0.000341 E-score |
| CAAGGTGG | -0.183 E-score |
| AAGCAGGA | -0.162 E-score |

| Sequence | binding signal |
| --- | --- |
| ATCTTGGG | -0.154 E-score |
| ACCATTAG | 0.127 E-score |
| CTTAATAC | 0.0879 E-score |
| AATAGCTA | 0.329 E-score |
| AAGGGTCT | -0.165 E-score |
| GGGGGCGA | -0.305 E-score |
| CGTAAACC | 0.099 E-score |
| AAGACCAT | 0.0367 E-score |
| ACTGCACA | 0.168 E-score |
| ACAGACTA | 0.0827 E-score |
| CCGACGCG | -0.18 E-score |
| CAGCCGTA | -0.0607 E-score |
| GGATGGGA | -0.147 E-score |
| ACCCGATC | -0.151 E-score |
| GGCGAACA | -0.32 E-score |
| ACATCACT | -0.015 E-score |
| CTGTTGTC | -0.128 E-score |
| ACCCGCTC | -0.169 E-score |
| CTTGGTCC | -0.254 E-score |
| ACAGAGAA | -0.107 E-score |
| CTTTGCAC | 0.147 E-score |
| CTGTGTCC | -0.0743 E-score |
| ACATACGA | 0.0378 E-score |
| TAATCGCA | 0.012 E-score |
| ATTTAGGG | -0.024 E-score |

| Sequence | binding signal |
| --- | --- |
| CAAGCATC | -0.111 E-score |
| CTCAATCC | -0.024 E-score |
| GAGGGTGC | -0.117 E-score |
| ATGTAACA | 0.22 E-score |
| TCCCTCGA | -0.0813 E-score |
| AGGCATAT | -0.0106 E-score |
| AGGGTCTC | -0.305 E-score |
| CGAGGTTA | 0.1 E-score |
| ATGTCCCG | -0.143 E-score |
| AGAGCCAC | -0.242 E-score |
| AAAGGGCT | -0.271 E-score |
| ATGTATTC | 0.23 E-score |
| AAGGACCC | -0.274 E-score |
| GTATTGTA | 0.212 E-score |
| ATGATTTA | 0.0677 E-score |
| ACCGAAAA | 0.254 E-score |
| AGCTACCT | 0.209 E-score |
| AAATTATC | 0.364 E-score |
| CTACGAAG | 0.139 E-score |
| ACCCCTCT | -0.234 E-score |
| CACGCATC | 0.0237 E-score |
| CGATGGAA | 0.00647 E-score |
| TCCGGGCA | -0.169 E-score |
| CATCGCCG | -0.178 E-score |
| AACTAATA | 0.288 E-score |

| Sequence | binding signal |
| --- | --- |
| CCTGCAAC | -0.103 E-score |
| ATAGAGTG | 0.0207 E-score |
| ATTATCGG | 0.177 E-score |
| ACAGACGA | 0.165 E-score |
| GATATGCC | 0.0339 E-score |
| AGAAATTC | 0.184 E-score |
| ATAGACAA | 0.0932 E-score |
| AATGTGGA | 0.0237 E-score |
| ACTTAGAG | 0.0787 E-score |
| AAACCACA | 0.135 E-score |
| ATAATCGA | 0.22 E-score |
| CTACATAG | 0.152 E-score |
| TGATGCAA | 0.0017 E-score |
| ACATTAAG | 0.0456 E-score |
| AACTGAAG | -0.0934 E-score |
| GGCCCACC | -0.342 E-score |
| ACCTTGAG | -0.0415 E-score |
| AGGGTTGC | -0.217 E-score |
| AACGACTC | -0.177 E-score |
| CCGGGCTC | -0.311 E-score |
| CTTCTCCA | -0.00958 E-score |
| CGGATTCC | -0.161 E-score |
| GACGAACC | -0.197 E-score |
| GCCCCGGC | -0.231 E-score |
| AAGTCTAT | -0.116 E-score |

| Sequence | binding signal |
| --- | --- |
| ATGTAATG | 0.162 E-score |
| GATAACCC | -0.0417 E-score |
| GTATGGCA | 0.044 E-score |
| GACTTTGC | -0.0626 E-score |
| AGACACAT | -0.0118 E-score |
| GACCGGTA | 0.258 E-score |
| ACCGTCGG | -0.166 E-score |
| AGGTTGGA | -0.242 E-score |
| CCCAGAGC | -0.301 E-score |
| CCATGCCG | -0.0764 E-score |
| GACACATA | 0.0778 E-score |
| CTGCACAG | -0.0791 E-score |
| AAGCGGTG | -0.104 E-score |
| AATTAGTC | 0.261 E-score |
| ATCCTAAT | 0.217 E-score |
| TCAACGGA | -0.0515 E-score |
| AGACAGTA | 0.0933 E-score |
| TCGATCAA | 0.27 E-score |
| CTGACCTC | -0.23 E-score |
| CAACTTAA | -0.013 E-score |
| CTCTTCGA | -0.0372 E-score |
| AGGTAGGA | 0.0283 E-score |
| ATGTTACA | 0.194 E-score |
| ATAGGATC | 0.199 E-score |
| AGCGTCAC | -0.0853 E-score |

| Sequence | binding signal |
| --- | --- |
| GCCCATAC | -0.145 E-score |
| GAACGACC | -0.143 E-score |
| CCCCTGCG | -0.193 E-score |
| AGAACTAG | 0.291 E-score |
| CCCCACTC | -0.284 E-score |
| CGATCTTC | 0.106 E-score |
| GCAACACA | -0.099 E-score |
| CTCTGGCC | -0.137 E-score |
| GACTGATA | 0.171 E-score |
| TCGCGAAA | 0.15 E-score |
| GGACCATA | 0.00746 E-score |
| AGCACCCA | -0.195 E-score |
| AGCGCGCG | 0.0641 E-score |
| AGGCTATG | -0.178 E-score |
| ATAGGCAC | 0.0794 E-score |
| AAATACTG | 0.283 E-score |
| ACGAAACT | 0.31 E-score |
| CTCTGTTC | -0.0377 E-score |
| GGCGCTAA | -0.0606 E-score |
